# Test results from the RNAGym collection of RNA variant scans (doi:10.7554/elife.90254).
# The source gives no read counts; variants with many changes may rest on few reads.
# B1: LINE1-full (parent)
# chain: UACGUAGGUGGUUUUCCCCUGAUAGUGCUAAGGGGGCCUGGAAGUUUGGACUGGGCAGAGCUCAACACAGCGUGGCAAAGUGGCUGUGGCUAGACUGCCUCUCUGGAUUCCUCGUCACUCAGCAGGGCAUCUCUGAGAGAAAUGCC
# Variants of: B1
# Assay: self-cleavage, relative activity (ratio to wild type); higher = more cleavage; in vitro, sequencing; the parent is a self-cleaving ribozyme
row,Variant,self-cleavage
1,G8A C120U G127A U130C,1.18
2,A50G G125C U134G,1.68
3,A2G U73A U130C,0.44
4,A42G U62C U73A,0.05
5,C66U U102C U132C A142G,0.02
6,G54U U96C A141G,0.03
7,U9C U47C U91C A94U A142G,0
8,U13C A69U A79U U85A U132C,1
9,G82A U104A C120A A121G,1.9
10,U1C A22U A78G G105U,1.18
11,C68U A79U A129U C131U,0.31
12,G127A U132A U134C,0.83
13,A57G U87C U112C,0.31
14,G40A A50G U115C,0.72
15,G33A A43G G74A U109C,1.01
16,U9C U12C C19U U108C U130C,1.67
17,U13C A42G A57G A117G C128U,2.04
18,A67G U73C U85C,0
19,U13A U29C C84U,0.13
20,U62G A77G U104C A141G,0
21,U15C A31G A78U A92G U115C A136U A142G,0.46
22,A43G A50G C71U U100G U132C,0.61
23,A31U U96G U104A A129U U132A,0.05
24,U26A C51U U81G U108C U112A,2.51

row,Variant,self-cleavage
1,U23C U104C U115A A129G A141G,0.57
2,C51U A65G A77G,0
3,U81A U85C U87C A141G A142G,0.26
4,U12C U46C A77U A138G,1.89
5,A6G A24G A64G U132C,0.98
6,U14A A59G A64G A140G,0.16
7,A30G A64U A67U,0.03
8,G7A U39C U73C A92U A124G,0
9,U14G U73A U91C,0.21
10,U9C C90U U143C,0.07
11,U62C A65G A129U A141G,0.14
12,U13C G54A C84U,0.01
13,A22U U23A C56U A69G U134C,0.06
14,U39C U102A A107G G114A,2.17
15,U14C U26A C61A U91A U130C,0.02
16,U15C A78G C113U,1.62
17,U12C U85C U112G,0.84
18,A77C U130A U143C,1.87
19,U1G U87C G97A U115C,0.21
20,U39G G86A A94G,0.2
21,A43U C61G A65C G135U,0.18
22,A31G U73A U100C A136U,1.34
23,A24U U47C A64U A92C,0.19
24,U1A A31C A138U A142U,1.06

row,Variant,self-cleavage
1,U1C A6U A64U,0.41
2,A67U U119C U143C,0.28
3,A22U G35A A64U A92G,0.05
4,U23C A78G U108C,0.92
5,U13C C38A A107U U115A,2.1
6,A22G U46C U96C,0.48
7,U29C U52G G70A,0.28
8,A77U U96C U112G,0
9,U9A U13C A24G A77G A142G,0.32
10,A57U A65G G83A A138G,0.04
11,U9C U23C A59U U102C A117C,0
12,G49A C63U A64G U109A,0.05
13,U5C A30G A31G,1.75
14,G8A A24G U130C,2.51
15,U29C U108C C146U,1.25
16,A50U U96A U115C A136G,0.04
17,U12C A65G U85A U102C,0.31
18,C3U U15A A30U C71U U87C U119C,0.08
19,U12G G25A U73A A77G U87C C146U,0.79
20,G33A A79G A138G,1.12
21,G74A U81C U102C,0.93
22,A30U U62C A64U A79G,0.02
23,U23C U73A A121G A124U,1.36
24,G72A C103U A129G,1.06

row,Variant,self-cleavage
1,U13C U14C U62C A117G,0
2,U9C G48A A77U U91A A94U A117G U119C,0.11
3,U13C C98A A107G,0.12
4,U14C A92U C113U,0.33
5,A64U A78G A136G,0.34
6,U5A U46A U91A C113A A129G,0.1
7,U13C U29C A79G A124U U130C,1.02
8,U13G C37U U81C U143C,0.79
9,U12C C116U U143C,1.35
10,U62C A124U A138G,0
11,A6G G49U A57G U73C U100A,0.55
12,U47A U62A U73A U87A U119C,0.03
13,U14C A22U U47G U102A,1.25
14,U52A U130A A140G,1.18
15,C19A U87C A121G A138G,0.16
16,U1C G33A A42G A78G,1.5
17,A6U U26C A77G,1.09
18,U12G U14C G40A A136G,1.37
19,U20G A67G U130C A138G,0
20,G36A A140G G144U,1.73
21,U39C A57U A94U,0.05
22,U14C U91A A117U,1.69
23,A6G U87C A107G,0.66
24,A59G A92G U112C,0.2

row,Variant,self-cleavage
1,U1C C71A A77U U115C A117G,0.05
2,A42G U81A U119C,0
3,U73C U87C U112C A140G,0
4,G4A U20C C98U C116G A117U C131U,0.27
5,A77G U102C A129G,1.53
6,U15C A31U U62A C98G C110U A121G U130C,0.04
7,A24U U100C U112C,0
8,A77U U85C A121U,0.09
9,U5A U26A G86A,0.05
10,U20A U39A A78G,1.02
11,U45C G58A U112C,0.03
12,U15C A57U A65G A77U A78U U143C,0.14
13,U12C A22C U47A A140G,1.44
14,C16A U45A A57G A59G C90U U100A,0.14
15,U52A U85A U100C,0.19
16,U47G A69G U73A A107G A117U G125U,0
17,U13C U26A A77U,0.87
18,U26A A121C U143A,1.43
19,A42U G93A U96C U108A G144A,0.04
20,U5C U52C U87C,0
21,U13A U26C U29G U73C,2.45
22,G4C C19U U62C,0.24
23,A31U U39C A57U U85C,0.51
24,U46C A129G U134A C146U,1.64

row,Variant,self-cleavage
1,U12C C17G U81A U87C,0.11
2,A42G A64U A129U A141U,0.54
3,U9A C61U A136G,0.05
4,C110U A140G A141G,1.85
5,A6U U62A G106A C111U A138U,0.14
6,U14C A22G A141G,1.1
7,A64C U96C U143C,0.11
8,U26A U73C U132C,1.25
9,A77G C84G U132C A142G,0.11
10,U13C U45C U47C A136G,0.86
11,A64G U73A A121G A124G,0.2
12,G48A U96C A117U,0.06
13,A24G U96A U112C,0.04
14,U14C A43G U45C A138G,2.3
15,U47C U62C U100A,0
16,A50U U62G A138G,0.06
17,U46A A64G A138G,0.41
18,A57G A64G A67G U87C C95A C99U,0
19,U115A A129C U132C,1.47
20,U5C U45C U73C,0.45
21,U13A A42G A77G C84U A94U U134A,0.02
22,A42G A50G U119C,1.53
23,U45C U102A A124U,0.91
24,C19U G32A U91A,0.49

row,Variant,self-cleavage
1,U14C G44U U47A,0.68
2,A64U C84U A136G,0.11
3,U96A U100C U104A,0.04
4,A42G U73C U96A,0.11
5,A79G U112C C145U,0.65
6,A30G G53C G74A U109A U115A,1.27
7,U12G U26C U45G A78U G83A,0.54
8,U39C A64G A129G,0.78
9,U15A A67U U112C A138U,0.3
10,U100C U104A A107G,2.73
11,A31G A43G U134C U143C,0.71
12,G10A U13C A42G A142U,0.38
13,U12C G58A U143C,0.2
14,A30G A50U U52C U104A A140U,0.51
15,U29C A50G G54U G72A,0.42
16,U12G G80U G86A G125U,0.12
17,A2G C16U U45C U52A A92G A142G,0.88
18,U9C A65G C90A,0.07
19,U62C U81C C103A,0.08
20,U5A U46C U73C C110U,1.2
21,U23C C61U C99U,0.02
22,U73C A121U A140G,1.84
23,U26C U46C U115C A141G,2.3
